Out of some 380,000 compounds screened, about 25 (0.007%) were called active. Inconclusive results, whose numbers are uncertain, are shown with a selection of clear calls. The call rests on the fitted dose curve; in most records, active means well fitted activation curve with a large enough effect; inconclusive means small, poorly fitted or top-dose-only effect; inactive means no such curve, though single readings can be large or run the other way. No potency is given beside an inconclusive call; the fits are too rough.
Target: Glucagon-like peptide 1 receptor (Homo sapiens) (UniProt P43220)
Assay: qHTS of GLP-1 Receptor Agonists; on activation: % of control where 0% means no effect
Conditions: HEK293 GLP-1R CRE-luciferase, luminescence, 4-6 h, cells express a hypersensitive GLP-1R form; activation: at 45.6 µM (top of the series) unless noted
Potency means the concentration at half of the fitted maximal effect; tags describe the fitted curve by direction and shape.

UniProt P43220, sequence (P43220 whole entry, looked up): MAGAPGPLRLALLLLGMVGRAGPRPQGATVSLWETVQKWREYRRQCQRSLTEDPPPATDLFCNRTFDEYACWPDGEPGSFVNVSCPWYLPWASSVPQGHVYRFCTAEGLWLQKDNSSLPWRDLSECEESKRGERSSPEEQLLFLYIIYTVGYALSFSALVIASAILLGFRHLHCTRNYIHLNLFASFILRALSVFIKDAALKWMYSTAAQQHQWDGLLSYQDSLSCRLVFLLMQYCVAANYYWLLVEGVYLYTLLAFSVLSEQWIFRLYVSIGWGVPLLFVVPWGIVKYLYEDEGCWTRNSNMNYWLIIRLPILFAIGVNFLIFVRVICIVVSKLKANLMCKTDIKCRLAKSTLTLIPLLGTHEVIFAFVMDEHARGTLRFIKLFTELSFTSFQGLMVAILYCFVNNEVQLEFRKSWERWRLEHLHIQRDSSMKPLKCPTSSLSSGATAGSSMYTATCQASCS

Compound | Potency | activation
CCOC(=O)CN1C(=O)S/C(=C/c2ccc(OCc3ccc(C(=O)O)cc3)cc2)C1=O | inconclusive [activator, full curve] | 
COc1cccc(C2CC(=O)Nc3c2c(=O)[nH]c2nc4ccccc4n32)c1 (configuration not stated) |  | inactive: 0.639%
CC[n+]1ccc(C)c2cc(P(=O)(c3ccccc3)c3ccccc3)ccc21 |  | inactive: 6.19%
COc1ccc(C(=O)N/N=C/c2ccccn2)cc1OC |  | inactive: 3.02%
C[C@H](CO)N1C[C@H](C)[C@H](CN(C)C(=O)Nc2ccc(F)cc2)OCc2ccccc2-c2c(n(C)c3ccccc23)C1=O |  | inactive: -1.12%
CCc1cc2c(CN3CCN(Cc4ccccc4)CC3)cc(=O)oc2cc1O | inconclusive [activator, full curve, poor fit] | 
Fc1ccc(COc2ccc(-c3nnco3)cc2)c(Cl)c1 | inconclusive [activator, single point] | 
CCCCn1c(=NC(=O)c2cccnc2)c(C(=O)OCC)cc2c(=O)n3ccccc3nc21 | inconclusive [activator, partial curve] | 
N#CC(=C1NC(=O)c2ccccc21)c1nc2ccccc2n1CCO |  | inactive: 12.8%
COc1ccc(C(C)=O)cc1CSCCC#N | inconclusive [activator, partial curve, poor fit] | 
CCN(CC)S(=O)(=O)c1cc(NC(=O)c2ccccc2OCc2c(C)noc2C)ccc1C | inconclusive [activator, partial curve, poor fit] | 
O=C(Nc1ccc2c(c1)C(=O)c1ccccc1-2)c1ccccc1 |  | inactive: 12.5%
CCc1ccc(/C(C)=N/NC(=O)CNC(=O)/C=C/c2ccco2)cc1 |  | inactive: 3.73%
c1coc(CSc2ncnc3c2oc2ccccc23)c1 | inconclusive [activator, partial curve, poor fit] | 
O=C(COc1ccccc1)NCc1nnc2c3ccccc3c(-c3ccccc3)nn12 | inconclusive [activator, partial curve, poor fit] | 
CCOc1ncccc1C(=O)Nc1cc(S(=O)(=O)N(CC)CC)ccc1N1CCOCC1 | inconclusive [activator, single point] | 
Cc1csc(NC(=O)CCN2C(=O)c3ccccc3S2(=O)=O)n1 |  | inconclusive: 70.1% [activator]
COc1ccc(C2=Nn3c(nnc3-c3ccccc3OC)SC2)cc1OCC1CC1 | active: 3.98 µM | 
Cc1ccc(C(=O)O/N=C(\N)Cc2cccc3ccccc23)cc1 | inconclusive [activator, single point] | 
CC(C)(C)C(=O)Nc1nnc(COc2ccc(Cl)cc2)s1 | inconclusive [activator, partial curve, poor fit] | 
COc1ccc(-c2ccnc(-c3ccc(O)cc3)n2)cc1 | inconclusive [activator, single point] | 
CCN1C(=O)[C@H]2[C@@H](c3ccc(C)cc3)N[C@]3(CCCN(Cc4ccccc4)C3=O)[C@H]2C1=O | inconclusive [activator, partial curve, poor fit] | 
COc1ccc(OC)c(S(=O)(=O)Nc2ccc(-c3ccc4nncn4n3)cc2)c1 | inconclusive [activator, single point] | 

Compound | Potency | activation
COC(=O)[C@@H]1[C@H]2C[C@H]3c4[nH]c5ccccc5c4CCN3C[C@@H]2CC[C@@H]1O | inactive | 
Cc1c(C)n(Cc2ccccc2)c2ccc(C(=O)OCCCN(C)C)cc12 | inconclusive [activator, partial curve] | 
Clc1ccc(C(c2ccccc2)c2c[nH]c3ccccc23)s1 (configuration not stated) |  | inactive: -7.05%
COc1cc(C(=O)c2nccc3cc(OC)c(OC)cc23)c([N+](=O)[O-])cc1OC | inconclusive [activator, single point] | 
Cc1cc(Nc2ccc(Cl)cc2)nc(NCc2ccccc2)n1 | inconclusive [activator, partial curve, poor fit] | 
COc1ccc(C(=O)OCc2nc(N)nc(Nc3ccccc3C)n2)cc1OC | inconclusive [activator, partial curve, poor fit] | 
COC(=O)C(CN)c1c[nH]c2ccc(OC)cc12 (configuration not stated) |  | inconclusive: 41.7% [activator]
COc1ccc(-c2ccc(=O)n(CC(=O)Nc3cccc(O)c3)n2)cc1OC | inconclusive [activator, single point] | 
c1ccc2c(N3CCCC3)nc(-c3ccncc3)nc2c1 | inconclusive [activator, partial curve] | 
O=C(Nc1cccc(OC(F)(F)F)c1)c1ccc(-c2cccnc2)c2ccoc12 | inconclusive [activator, partial curve] | 
COc1ccc(C=C(C(=O)c2ccccc2)C(=O)c2ccccc2)cc1 |  | inactive: -7.06%
Cc1ccc2oc(-c3ccc(C)c(NC(=O)c4ccc(-c5ccccc5[N+](=O)[O-])o4)c3)nc2c1 |  | inactive: -5.93%
COc1ccc(C(CNC(=O)c2ccc(-c3ccccc3Cl)o2)N2CCOCC2)cc1 (configuration not stated) | inconclusive [activator, single point] | 
O=C(CN1C(=O)NC(c2ccccc2)(c2ccccc2)C1=O)N1CCN(c2ccccc2F)CC1 |  | inactive: -5.29%
CCc1cc2c(-c3ccccc3)cc(=O)oc2c(CN2CCOCC2)c1O | inconclusive [activator, full curve] | 
COc1cc2c(cc1OC)/C(=C/C(=O)c1ccc(NC(C)=O)cc1)NCC2 | inconclusive [activator, partial curve] | 
CCCCn1nnc(NC(=O)COc2cc(C)ccc2C(C)C)n1 |  | inactive: 5.9%
O=C(Nc1cccc(Cl)c1)N1CCN(c2ncccn2)CC1 | inconclusive [activator, partial curve] | 
COc1cccc(-c2cc(NC=O)c3ncc(-c4ccc(C(C)=O)cc4)n3c2)c1 | inconclusive [activator, full curve] | 
Cn1c(=Nc2ccccc2)sc2ccccc21 | inconclusive [activator, partial curve, poor fit] | 
COc1cc(C(=O)c2cc3c(cc2C)OCO3)cc(OC)c1OC | inconclusive [activator, partial curve, poor fit] | 
CCOc1ccc(Nc2oc(Cc3ccccc3)nc2C#N)cc1 | inconclusive [activator, single point] | 
CCc1nn(-c2cc(Cl)ccc2OC)c2c1C(=O)CCC2 | inconclusive [activator, partial curve, poor fit] | 

Compound | Potency | activation
COc1cc(C(=O)NCc2ccc(-c3nc4ccccc4o3)cc2)cc(OC)c1OC | inconclusive [activator, partial curve] | 
O=C(O)CN1C(=O)/C(=C\c2cccc(OCc3ccccc3F)c2)SC1=S |  | inconclusive: 42.3% [activator]
CCCN1C(=O)C(Cc2nc3ccccc3c(=O)n2-c2ccccc2)c2ccccc21 (configuration not stated) | inconclusive [activator, single point] | 
COc1ccc(OC)c(C(=O)Nc2c(O)ccc3ccccc23)c1 | inconclusive [activator, single point] | 
O=C1NC(c2cccc3ccccc23)Nc2ccccc21 (configuration not stated) | inconclusive [activator, full curve, poor fit] | 
O=C(N=c1ccn(-c2nc3ccccc3nc2NS(=O)(=O)c2ccccc2)cc1)c1ccccc1Cl |  | inactive: 0.184%
COc1ccc(Nc2nc(N)nc(CSC(=S)N3CCCCC3C)n2)cc1 (configuration not stated) | inconclusive [activator, partial curve, poor fit] | 
O=C(ONC1=NCCCCC1)c1ccc(Cl)cc1 | inconclusive [activator, partial curve, poor fit] | 
C(=C\c1ccccc1)/CN1CCN(C(c2ccnc3ccccc23)c2nnnn2C2CCCC2)CC1 (configuration not stated) |  | inactive: -1.5%
COc1ccccc1-c1cc(NC(C)=O)c2ncc(-c3ccc(S(C)(=O)=O)cc3)n2c1 | inconclusive [activator, partial curve, poor fit] | 
COC(=O)c1ccc(COC(=O)c2ccc(SC)cc2OC)cc1 | inconclusive [activator, single point] | 
C#CCOc1ccc2c3c(c(=O)oc2c1)CCCC3 | inconclusive [activator, partial curve, poor fit] | 
O=C(/C=C/c1ccc([N+](=O)[O-])cc1)NCCOc1ccc(F)cc1 |  | inconclusive: 36% [activator]
Cc1nc(NS(=O)(=O)c2ccc(N)cc2)nc(C)c1Br |  | inactive: 15%
CCOC(=O)c1c(C)n(-c2ccccc2)c2ccc(O)cc12 | inconclusive [activator, partial curve, poor fit] | 
Cc1cccc(C)c1NC(=O)CN1C(=O)CCSc2ccc(S(=O)(=O)N3CCCC3)cc21 |  | inactive: 1.78%
O=C(c1ccccc1)c1cc([N+](=O)[O-])ccc1N1CCOCC1 | inconclusive [activator, partial curve, poor fit] | 
CCS(=O)(=O)n1nc(-c2cccnc2)nc1NCc1ccc(F)cc1 | inconclusive [activator, partial curve] | 
O=[N+]([O-])c1ccc2n[nH]nc2c1 |  | inactive: -12.4%
COc1ccc(C(=O)/C=C/Nc2ccc(S(=O)(=O)Nc3nc(C)cc(C)n3)cc2)cc1OC | inconclusive [activator, single point] | 
COc1ccc(/C=C2\OC(=O)c3c(OC)cccc32)cc1OC | active: 5.01 µM | 

Source: PubChem BioAssay AID624172 (National Center for Advancing Translational Sciences (NCATS), 2012)
